Test results taken from patent US20240025993A1, “CD19 BINDING MOLECULES AND USES THEREOF” (NOVARTIS AG, priority 2020, published 2024).

How the values were obtained:
Format in all cases: cell-based, human
[1] = system: T cells co-cultured with Karpas422 or Nalm-6 target cells; assay: BBM-induced T cell proliferation, Cell Trace Violet dilution (Example 3); details: E:T 1:1, 96 hrs, 16 pM-10,000 pM
Method: The BBMs described in Example 1A, containing the variable regions of NEG258 and NEG218, were evaluated for their ability to induce T cell proliferation upon co-culture with CD19 expressing target cells. Briefly, Karpas422 and Nalm-6 target cells stably expressing firefly luciferase were irradiated on the day of the assay and plated at a density of 60,000 cells per well in a Costar 96 well plate (Corning, Cat #3904) in T Cell Media (TCM) [RPMI-1640 (ThermoFisher Scientific, Cat #11875-085), 10% FBS (Seradigm, Cat #1500-500), 1% L-Glutamine (Thermo Fisher Scientific, Cat #25830-081), 1% Non Essential Amino Acids (Thermo Fisher Scientific, Cat #11140-050),1% Pen/Strep (Thermo Fisher Scientific, Cat #15070063), 1% HEPES (Thermo Fisher Scientific, Cat #15630080), Sodium Pyruvate (Thermo Fisher Scientific, Cat #11360-070), 0.1% Beta-mercaptoethanol (Thermo Fisher Scientific, Cat #21985-023)]. Peripheral blood mononuclear cells (PBMCs) previously isolated from Leukopak donors (Hemacare) and cryopreserved were thawed and Pan T cells were isolated by negative selection using the Pan T cell Isolation Kit, human [Miltenyi Biotec, Cat #130-096-535] following the manufacturer's protocol. […] The samples were then run on BD LSR Fortessa and analyzed using FlowJo to determine % proliferated CD3+ T cells based on CD3 staining and dilution of Cell Trace Violet dye.

[2] = system: Nalm6-luc cells; assay: RTCC assay with BBMs (Example 2)
Method: (§1) A RTCC assay with the BBMs of Example 1A was performed to measure the ability of the BBMs to elicit RTCC against CD19+ Nalm6-luc and Karpas422-luc cells. Nalm-6 is a human B cell precursor leukemia cell line and Karpas422 is a human B-cell non-hodgkin lymphoma cell line. Briefly, Nalm6 and Karpas422 cells engineered to express the firefly luciferase reporter gene were cultured in RPM 11640 culture media with 10% fetal bovine serum (FBS). 10,000 target cells with serial diluted BBMs or gH isotype antibody control (αgH-CD3hi) were seeded on 384-well flat-bottom microtiter plate. Primary human T cells were isolated from cryopreserved peripheral blood mononuclear cells (PBMCs) and expanded using anti-CD3 and anti-CD28 dynabeads (Thermo fisher, catalog #11131 D) and subsequently cryopreserved. Expanded T cells were thawed and aliquoted to the plate to achieve an effector cell (i.e., T cell) to target cell (i.e., cancer cell) ratio (E:T ratio) of 3:1. Plates were incubated in a 37° C. incubator with 5% CO2 overnight. Following the co-incubation, Bright Glo (Promega, catalog #E2620) was added to all wells and the luminescence signal was subsequently measured on an Envision (Perkin Elmer). Target cells with Bright Glo served as maximal signal. The percent RTCC of target cells was calculated using the following formula: [100−(sample/maximal signal)*100%].

[3] = system: Karpas422-luc cells; assay: RTCC assay with BBMs (Example 2)
Method: as §1

B1: NEG258-based BBM: bispecific of Example 1A: NEG258 anti-CD19 half antibody and CD3hi anti-CD3 scFv-Fc, knob-into-hole (antibody)
heavy: QVQLVQSGAEVKKPGASVKVSCKASGYTFTTYWIQWVRQAPGQRLEWMGAVYPGDADTRYTQKFQGRVTLTADRSASTAYMELSSLRSEDTAVYYCGRDAGLEYYALDYWGQGTLVTVSSASTKGPSVFPLAPSSKSTSGGTAALGCLVKDYFPEPVTVSWNSGALTSGVHTFPAVLQSSGLYSLSSVVTVPSSSLGTQTYICNVNHKPSNTKVDKRVEPKSCDKTHTCPPCPAPELLGGPSVFLFPPKPKDTLMISRTPEVTCVVVAVSHEDPEVKFNWYVDGVEVHNAKTKPREEQYASTYRVVSVLTVLHQDWLNGKEYKCKVSNKALAAPIEKTISKAKGQPREPQVCTLPPSREEMTKNQVSLSCAVKGFYPSDIAVEWESNGQPENNYKTTPPVLDSDGSFFLVSKLTVDKSRWQQGNVFSCSVMHEALHNHYTQKSLSLSPGK
light: EIVMTQSPATLSVSPGERATLSCRASQDVGTAVAWYQQKPGQAPRLLIYWASTRHTGIPARFSGSGSGTEFTLTISSLQSEDFAVYFCQQYANFPLYTFGQGTKLEIKRTVAAPSVFIFPPSDEQLKSGTASVVCLLNNFYPREAKVQWKVDNALQSGNSQESVTEQDSKDSTYSLSSTLTLSKADYEKHKVYACEVTHQGLSSPVTKSFNRGEC
chain: EVQLVESGGGLVQPGGSLKLSCAASGFTFNTYAMNWVRQASGKGLEWVGRIRSKYNNYATYYADSVKDRFTISRDDSKSTLYLQMNSLKTEDTAVYYCVRHGNFGNSYVSWFAYWGQGTLVTVSSGGGGSGGGGSGGGGSGGGGSQAVVTQEPSLTVSPGGTVTLTCRSSTGAVTTSNYANWVQQKPGQAPRGLIGGTNKRAPWTPARFSGSLLGDKAALTLSGAQPEDEAEYFCALWYSNLWVFGGGTKLTVLGGGGSDKTHTCPPCPAPELLGGPSVFLFPPKPKDTLMISRTPEVTCVVVAVSHEDPEVKFNWYVDGVEVHNAKTKPREEQYASTYRVVSVLTVLHQDWLNGKEYKCKVSNKALAAPIEKTISKAKGQPREPQVYTLPPCREEMTKNQVSLWCLVKGFYPSDIAVEWESNGQPENNYKTTPPVLDSDGSFFLYSKLTVDKSRWQQGNVFSCSVMHEALHNRYTQKSLSLSPGK
T cell proliferation (% proliferated CD3+ T cells) [1]: more potent activity than the NEG218-based BBM | redirected T-cell cytotoxic activity (RTCC) [2]: mediated RTCC activity | redirected T-cell cytotoxic activity (RTCC) [3]: mediated RTCC activity
